Experimental data: paper PMC6607965
These are yes or no findings as the source states them, for the method shown. For some of these results: Binding seen in cells or lysates may run through a third protein. Some entries that bind do so weakly or less than the wild type. For some of these results: Where a sequence is shown, tags or fusion partners need not be part of it. Values belong to the binder of their own block, whether it stands above or below them.

Assays:
[1] = target: T1, BYPASS1-LIKE (B1L), pGBKT7 two-hybrid bait (Arabidopsis thaliana) (UniProt Q9M9U5); assay: two-hybrid; directed assay: B1L and its variants in pGBKT7, 14-3-3 proteins in pGADT7, strain AH109, growth of serial decimal dilutions on selective media
T1 sequence: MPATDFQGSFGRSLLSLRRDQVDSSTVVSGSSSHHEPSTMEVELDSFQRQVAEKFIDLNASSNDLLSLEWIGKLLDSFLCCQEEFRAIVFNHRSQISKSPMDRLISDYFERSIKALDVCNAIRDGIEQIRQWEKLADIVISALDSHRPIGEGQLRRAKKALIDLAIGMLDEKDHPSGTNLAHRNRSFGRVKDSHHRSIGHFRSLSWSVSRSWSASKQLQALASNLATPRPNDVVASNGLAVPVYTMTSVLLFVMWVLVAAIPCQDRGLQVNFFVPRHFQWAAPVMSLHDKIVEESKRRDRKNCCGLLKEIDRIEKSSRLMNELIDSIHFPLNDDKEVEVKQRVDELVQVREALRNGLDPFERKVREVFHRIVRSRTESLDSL

[2] = target: T2, YFP^N-B1L^S213A (Arabidopsis thaliana) (UniProt Q9M9U5); assay: split reporter; BiFC in N. benthamiana leaves, YFP^N and YFP^C fusions, YFP signal by confocal microscopy two days after infiltration; plants pretreated with or without 4°C for 6 h
T2 sequence: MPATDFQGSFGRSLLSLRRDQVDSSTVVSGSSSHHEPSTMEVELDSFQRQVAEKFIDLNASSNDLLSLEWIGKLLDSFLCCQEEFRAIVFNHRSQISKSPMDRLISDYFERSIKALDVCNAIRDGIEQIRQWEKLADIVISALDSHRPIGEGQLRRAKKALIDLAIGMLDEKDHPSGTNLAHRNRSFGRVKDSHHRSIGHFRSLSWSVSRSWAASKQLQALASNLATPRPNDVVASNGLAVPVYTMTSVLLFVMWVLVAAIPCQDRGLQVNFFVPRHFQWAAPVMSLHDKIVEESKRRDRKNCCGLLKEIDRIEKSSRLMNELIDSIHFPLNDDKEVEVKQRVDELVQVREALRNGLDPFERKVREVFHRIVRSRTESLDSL

[3] = target: T3, YFP^N-B1L (Arabidopsis thaliana) (UniProt Q9M9U5); assay: as above
T3 sequence: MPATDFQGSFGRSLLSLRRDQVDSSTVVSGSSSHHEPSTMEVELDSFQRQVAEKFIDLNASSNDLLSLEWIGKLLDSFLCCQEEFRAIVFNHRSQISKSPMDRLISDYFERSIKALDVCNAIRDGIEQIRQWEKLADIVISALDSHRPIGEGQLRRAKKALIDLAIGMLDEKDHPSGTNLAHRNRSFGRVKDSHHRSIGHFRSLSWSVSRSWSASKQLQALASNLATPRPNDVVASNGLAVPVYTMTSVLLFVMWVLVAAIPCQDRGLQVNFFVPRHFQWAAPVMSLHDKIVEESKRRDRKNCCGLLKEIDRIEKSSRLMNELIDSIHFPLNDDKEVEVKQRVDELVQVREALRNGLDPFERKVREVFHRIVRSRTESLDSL

[4] = target: T4, YFP^N-B1L^S213D (Arabidopsis thaliana) (UniProt Q9M9U5); assay: as above
T4 sequence: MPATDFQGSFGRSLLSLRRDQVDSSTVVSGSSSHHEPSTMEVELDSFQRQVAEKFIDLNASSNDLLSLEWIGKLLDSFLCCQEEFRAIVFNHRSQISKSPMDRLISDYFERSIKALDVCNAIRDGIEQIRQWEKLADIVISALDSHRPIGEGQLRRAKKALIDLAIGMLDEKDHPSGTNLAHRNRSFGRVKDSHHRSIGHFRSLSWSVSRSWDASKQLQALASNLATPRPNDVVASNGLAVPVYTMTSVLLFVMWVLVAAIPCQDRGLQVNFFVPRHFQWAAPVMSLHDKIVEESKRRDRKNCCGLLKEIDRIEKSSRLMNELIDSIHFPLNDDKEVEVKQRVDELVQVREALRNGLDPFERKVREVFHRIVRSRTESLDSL

[5] = target: T5, B1L-FLAG (Arabidopsis thaliana) (UniProt Q9M9U5); assay: co-IP; co-expressed in N. benthamiana leaves; total protein in IP buffer (50 mM Tris-HCl pH 7.6, 150 mM NaCl, 10% glycerol), anti-FLAG agarose overnight at 4°C, blot with anti-MYC and anti-FLAG
T5 sequence: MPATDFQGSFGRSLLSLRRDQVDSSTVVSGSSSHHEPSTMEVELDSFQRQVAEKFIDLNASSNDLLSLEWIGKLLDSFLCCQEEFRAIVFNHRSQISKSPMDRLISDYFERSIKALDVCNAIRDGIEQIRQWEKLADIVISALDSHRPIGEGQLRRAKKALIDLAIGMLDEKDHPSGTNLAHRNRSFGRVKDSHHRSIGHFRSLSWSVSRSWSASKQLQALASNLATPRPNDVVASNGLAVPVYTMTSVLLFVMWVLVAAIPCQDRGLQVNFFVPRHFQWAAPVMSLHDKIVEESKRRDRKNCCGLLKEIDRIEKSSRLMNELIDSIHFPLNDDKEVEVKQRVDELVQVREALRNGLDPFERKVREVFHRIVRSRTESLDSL

[6] = target: T6, B1L^S213A, pGBKT7 two-hybrid bait (Arabidopsis thaliana) (UniProt Q9M9U5); assay: two-hybrid; directed assay: B1L and its variants in pGBKT7, 14-3-3 proteins in pGADT7, strain AH109, growth of serial decimal dilutions on selective media
T6 sequence: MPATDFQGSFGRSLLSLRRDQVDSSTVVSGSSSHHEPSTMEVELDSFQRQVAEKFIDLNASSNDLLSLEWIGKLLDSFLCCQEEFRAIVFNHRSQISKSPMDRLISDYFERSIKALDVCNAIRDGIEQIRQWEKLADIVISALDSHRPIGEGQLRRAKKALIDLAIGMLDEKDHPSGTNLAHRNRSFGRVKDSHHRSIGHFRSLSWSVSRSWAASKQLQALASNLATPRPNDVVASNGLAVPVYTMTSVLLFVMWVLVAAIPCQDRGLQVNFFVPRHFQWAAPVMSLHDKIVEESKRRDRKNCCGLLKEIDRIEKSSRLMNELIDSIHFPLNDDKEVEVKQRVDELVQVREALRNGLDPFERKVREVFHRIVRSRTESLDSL

[7] = target: T7, B1L^S213D, pGBKT7 two-hybrid bait (Arabidopsis thaliana) (UniProt Q9M9U5); assay: as above
T7 sequence: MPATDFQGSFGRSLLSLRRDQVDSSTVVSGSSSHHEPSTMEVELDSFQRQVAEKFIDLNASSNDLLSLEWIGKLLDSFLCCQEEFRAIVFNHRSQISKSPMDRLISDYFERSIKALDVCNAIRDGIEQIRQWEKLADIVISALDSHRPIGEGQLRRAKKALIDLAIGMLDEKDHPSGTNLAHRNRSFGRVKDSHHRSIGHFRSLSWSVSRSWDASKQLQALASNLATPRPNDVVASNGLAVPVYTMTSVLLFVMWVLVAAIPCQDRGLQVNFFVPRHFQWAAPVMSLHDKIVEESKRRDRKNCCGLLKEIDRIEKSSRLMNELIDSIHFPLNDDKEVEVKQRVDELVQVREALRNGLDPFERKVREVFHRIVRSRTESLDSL

[8] = target: T8, B1L-N terminal (amino acids 1-238), pGBKT7 two-hybrid bait (Arabidopsis thaliana) (UniProt Q9M9U5); assay: as above
T8 sequence: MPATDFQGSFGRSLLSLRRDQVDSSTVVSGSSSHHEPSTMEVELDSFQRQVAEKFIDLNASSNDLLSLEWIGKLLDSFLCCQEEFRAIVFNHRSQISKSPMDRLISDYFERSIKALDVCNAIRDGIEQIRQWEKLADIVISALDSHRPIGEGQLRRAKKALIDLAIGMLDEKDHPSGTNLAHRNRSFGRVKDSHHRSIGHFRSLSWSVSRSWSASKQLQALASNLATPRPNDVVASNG

[9] = target: T9, B1L-C terminal (amino acids 262-382), pGBKT7 two-hybrid bait (Arabidopsis thaliana) (UniProt Q9M9U5); assay: as above
T9 sequence: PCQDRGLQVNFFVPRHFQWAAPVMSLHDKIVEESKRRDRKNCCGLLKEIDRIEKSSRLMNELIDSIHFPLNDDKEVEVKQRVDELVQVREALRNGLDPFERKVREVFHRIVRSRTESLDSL

B1: 14-3-3ψ, pGADT7 two-hybrid prey (protein, UniProt P42644 1-255)
chain: MSTREENVYMAKLAEQAERYEEMVEFMEKVAKTVDVEELSVEERNLLSVAYKNVIGARRASWRIISSIEQKEESKGNEDHVAIIKDYRGKIESELSKICDGILNVLEAHLIPSASPAESKVFYLKMKGDYHRYLAEFKAGAERKEAAESTLVAYKSASDIATAELAPTHPIRLGLALNFSVFYYEILNSPDRACSLAKQAFDDAIAELDTLGEESYKDSTLIMQLLRDNLTLWTSDMTDEAGDEIKEASKPDGAE
binding [1]: no binding

B4: 14-3-3λ, pGADT7 two-hybrid prey (protein, UniProt P48349 1-248)
chain: MAATLGRDQYVYMAKLAEQAERYEEMVQFMEQLVTGATPAEELTVEERNLLSVAYKNVIGSLRAAWRIVSSIEQKEESRKNDEHVSLVKDYRSKVESELSSVCSGILKLLDSHLIPSAGASESKVFYLKMKGDYHRYMAEFKSGDERKTAAEDTMLAYKAAQDIAAADMAPTHPIRLGLALNFSVFYYEILNSSDKACNMAKQAFEEAIAELDTLGEESYKDSTLIMQLLRDNLTLWTSDMQEQMDEA
binding [6]: binds
binding [1]: binds
binding [7]: binds
binding [8]: binds
binding [9]: no binding

Further lines, results first:

binding [2]: binds
binding [3]: binds
binding [4]: binds
B2: YFP^C-14-3-3λ (protein, UniProt P48349 1-248)
chain: MAATLGRDQYVYMAKLAEQAERYEEMVQFMEQLVTGATPAEELTVEERNLLSVAYKNVIGSLRAAWRIVSSIEQKEESRKNDEHVSLVKDYRSKVESELSSVCSGILKLLDSHLIPSAGASESKVFYLKMKGDYHRYMAEFKSGDERKTAAEDTMLAYKAAQDIAAADMAPTHPIRLGLALNFSVFYYEILNSSDKACNMAKQAFEEAIAELDTLGEESYKDSTLIMQLLRDNLTLWTSDMQEQMDEA

binding [5]: binds
B3: 14-3-3λ-MYC (protein, UniProt P48349 1-248)
chain: MAATLGRDQYVYMAKLAEQAERYEEMVQFMEQLVTGATPAEELTVEERNLLSVAYKNVIGSLRAAWRIVSSIEQKEESRKNDEHVSLVKDYRSKVESELSSVCSGILKLLDSHLIPSAGASESKVFYLKMKGDYHRYMAEFKSGDERKTAAEDTMLAYKAAQDIAAADMAPTHPIRLGLALNFSVFYYEILNSSDKACNMAKQAFEEAIAELDTLGEESYKDSTLIMQLLRDNLTLWTSDMQEQMDEA
